Test results published in article PMC4336329 (PLoS ONE, 2015).
The campaign covered roughly 310,000 compounds. About 14,000 (4.5%) showed an effect of 50% or more. Effects have a minus sign here. Some of the results follow.

Target: human ether-à-go-go-related gene (hERG) potassium channel (human, UniProt Q12809)
Assay: primary screen, population patch clamp on CHO cells stably expressing hERG
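Further: peak tail current of the secondary pulse compared with the same well before compound.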

human ether-à-go-go-related gene (hERG) potassium channel, sequence (Q12809 whole entry, looked up): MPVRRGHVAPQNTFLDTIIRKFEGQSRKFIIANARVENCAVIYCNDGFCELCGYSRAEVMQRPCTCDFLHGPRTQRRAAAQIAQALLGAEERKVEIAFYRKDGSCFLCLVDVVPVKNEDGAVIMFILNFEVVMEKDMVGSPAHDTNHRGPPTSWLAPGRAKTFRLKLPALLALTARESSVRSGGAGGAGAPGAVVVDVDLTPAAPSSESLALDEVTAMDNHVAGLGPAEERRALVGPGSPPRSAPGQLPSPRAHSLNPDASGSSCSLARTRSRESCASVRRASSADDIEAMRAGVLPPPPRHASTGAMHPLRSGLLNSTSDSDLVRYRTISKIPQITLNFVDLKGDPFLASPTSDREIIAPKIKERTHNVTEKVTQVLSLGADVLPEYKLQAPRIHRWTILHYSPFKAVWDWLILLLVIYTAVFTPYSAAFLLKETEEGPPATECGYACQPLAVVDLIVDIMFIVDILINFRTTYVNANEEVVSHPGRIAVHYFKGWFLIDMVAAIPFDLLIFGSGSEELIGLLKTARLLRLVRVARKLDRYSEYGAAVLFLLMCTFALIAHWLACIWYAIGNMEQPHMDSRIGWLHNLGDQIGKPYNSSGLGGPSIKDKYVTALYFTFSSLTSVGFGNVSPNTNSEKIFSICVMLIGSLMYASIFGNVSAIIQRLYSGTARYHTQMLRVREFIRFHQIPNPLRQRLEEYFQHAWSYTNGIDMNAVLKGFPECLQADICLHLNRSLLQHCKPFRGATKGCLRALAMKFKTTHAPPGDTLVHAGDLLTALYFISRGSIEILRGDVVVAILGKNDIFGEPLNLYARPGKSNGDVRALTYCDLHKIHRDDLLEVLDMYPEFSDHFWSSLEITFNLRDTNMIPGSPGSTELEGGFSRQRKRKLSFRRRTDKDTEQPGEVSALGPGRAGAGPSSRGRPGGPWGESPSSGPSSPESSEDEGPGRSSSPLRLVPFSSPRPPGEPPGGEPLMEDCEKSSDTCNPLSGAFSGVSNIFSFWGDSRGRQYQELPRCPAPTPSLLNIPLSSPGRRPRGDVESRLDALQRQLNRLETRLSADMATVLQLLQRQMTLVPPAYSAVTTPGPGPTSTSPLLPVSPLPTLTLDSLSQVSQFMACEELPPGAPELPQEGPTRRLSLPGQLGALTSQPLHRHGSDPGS

Compound | hERG current change (%, negative = inhibition) at 10uM [%]
CCCCn1nnnc1SCC(=O)NNC(=O)c1ccco1 | 22.6
CC(C)CC(=O)c1c[nH]c(C(=O)NCCc2ccccn2)c1 | -0.743
COc1cccc(NC(=O)C2CCCN2C(=O)Nc2cccc(F)c2)c1 (centres unmarked) | -4.71
O=C(Cc1cccs1)N1CCN(c2cccc(Cl)c2)CC1 | -12
COCCNC(=O)c1ccccc1NC(=O)c1ccccc1N(C)S(=O)(=O)c1ccc(C)cc1 | -19.9
O=C(c1ccc(CS(=O)Cc2ccccc2Cl)o1)N1CCN(C2CCCCC2)CC1 (centres unmarked) | 1.8
COCCNc1ccc(S(=O)(=O)N2CCCC2)cc1[N+](=O)[O-] | -12.3
Cc1ccc(S(=O)(=O)Nc2nc(C)c(C(=O)N/N=C/c3ccccc3)s2)cc1 | 16.9
O=S(=O)(c1ccc(SCc2ccccc2)nc1)N1CCCCCC1 | -2.37
COc1ccc(OC)c2sc(N(CCN(C)C)C(=O)c3cc(Cl)sc3Cl)nc12.Cl | -28.9
CCOC(=O)CCCn1nc(C)n2c(cc3sccc32)c1=O | -21.6
COc1ccc(NC(=O)c2cc([N+](=O)[O-])ccc2NC(=O)CNCc2ccccn2)c(OC)c1 | 7.29
Cc1cccc(NC(=O)NCC2CCN(c3ccc(S(=O)(=O)N4CCOCC4)cc3)CC2)c1 | -8.61
COC(=O)CCC(=O)N1CCOCCOCCOCC1 | 6.29
O=C(Nc1nc2c(s1)CCCC2)C1COc2ccccc2O1 (centres unmarked) | -12.5
Cc1ccc(C)c(SCC(=O)NNC(=O)c2csc(N3CCOCC3)n2)c1 | -55.1
CSc1cccc(NC(=S)N2CCC(N(C)C3CCCCC3C)CC2)c1 (centres unmarked) | -58.2
COc1ccc(C(=O)Nc2ccc(S(=O)(=O)N3CCN(C)CC3)cc2)cc1 | 8.1
CC(Cc1ccccc1)NC(=O)/C=C/c1ccc([N+](=O)[O-])cc1 (centres unmarked) | -51.7
CC1(C)NC(=O)N(CCOc2ccc3c(c2)CCC3)C1=O | -4.24
O=C(NCc1cccs1)C1CCCN(S(=O)(=O)c2cnc[nH]2)C1 (centres unmarked) | 3.55
CCOc1ccc(S(=O)(=O)Nc2cccc(C(=O)N3CCN(c4cccc(OC)c4)CC3)c2)cc1 | 14.4
COc1ccc(-c2nc3c(c4nnc(SC(C)C(=O)Nc5ccccc5)n24)COC(C)(C)C3)cc1 (centres unmarked) | -5.88

Compound | hERG current change (%, negative = inhibition) at 10uM [%]
COc1ccc(NC(=O)CN(C)C(=O)c2cnc(Cl)c(Cl)c2)cc1 | 2.39
CC1=NN(/C(=N\c2nnc(C)s2)Nc2ccccc2)[C@H](c2ccc(C)cc2)S1 | -13.5
COc1cccc(CN(C)C(=O)c2ccc(OCC(=O)Nc3cccc(C(F)(F)F)c3)c(OC)c2)c1 | -26.2
COCCNC(=O)CN1CCC(NC(=O)Nc2ccc(C(F)(F)F)cc2)CC1 | -29.2
O=C(Cc1ccc(S(=O)(=O)N2CCOCC2)s1)NNC(=O)c1ccccc1Cl | 12.2
Cc1cc2ccccn2c1C(=O)c1ccc(C#N)cc1 | 16.7
O=C(CSc1nc2[nH]ncc2c(=O)[nH]1)NCc1ccccc1 | 15
CC1CCN(C(=S)c2cccc(O)c2)CC1 | 7.49
O=C(CSc1nncn1-c1cccnc1)Nc1ccccc1[N+](=O)[O-] | 2.77
CCC(=O)c1ccc(N2CCCCC2)c(F)c1 | 8.26
CC(=O)Nc1ccc(NC(=O)COC(=O)/C=C/c2ccc3c(c2)OCO3)cc1 | 18.5
Cn1/c(=N/NC(=O)c2ccccc2F)sc2ccccc21 | 5.9
CCCc1nnc(NC(=O)CCC(=O)NCc2ccccc2Cl)s1 | -18.1
C=CCc1c(C)nc(N)[nH]c1=O | 12.8
CC1Sc2ccc(S(=O)(=O)CCC(=O)Nc3ccccn3)cc2NC1=O (centres unmarked) | 21.7
O=C(CC(c1ccco1)S(=O)(=O)c1ccccc1)c1ccccc1 (centres unmarked) | 0.0106
Cc1ccc(C(=O)C(C)OC(=O)CN2C(=O)NC3(CCCC3)C2=O)cc1C (centres unmarked) | 9.76
COc1ccc(CCC(=O)NNC(=O)c2cccs2)cc1 | 5.98
Cc1c(N=Nc2ccc(O)cc2)c(=O)n(-c2ccccc2)n1C | -1.09
CCOC(=O)c1cnn(-c2cc(C)c3ccccc3n2)c1N | -1.77
CCN(CC(=O)Nc1ccccc1OC)C(=O)Cn1cnc2ccccc2c1=O | 4.21
O=C(O)c1cc2cc(F)ccc2[nH]1 | 16.2
O=C(c1cc(-c2cccs2)nn1-c1ccccc1)N1CCN(S(=O)(=O)c2ccccc2)CC1 | -6.31

Compound | hERG current change (%, negative = inhibition) at 10uM [%]
COC(=O)[C@@H](NC(=O)NCc1ccccc1Cl)C(C)C | 12.3
COc1ccc(CCNC(=O)Cn2nc(C)n3nc(-c4ccccc4)cc3c2=O)cc1OC | 2
Cc1cc(C)nc(SCC(=O)Nc2ccc(N3CCOCC3)cc2)n1 | -6.86
c1ccc(-c2nc3ccccc3s2)nc1 | 4.67
COc1cccc(N2CCN(C(=O)C3CCCN(S(=O)(=O)c4ccc5c(c4)oc(=O)n5C)C3)CC2)c1 (centres unmarked) | -17
CCOC(=O)c1c(NC(=O)Cn2nnc3ccccc32)sc2c1CCC(C)C2 (centres unmarked) | -5.4
CC(C)(C)NC(=O)NC(=O)COC(=O)c1cc[n+]([O-])cc1 | 1.63
Cc1ccsc1/C=C1\SC(N)=NC1=O | 1.92
Br.OCCCn1c(-c2ccccc2)csc1=Nc1ccccc1 | -38.1
CCOc1ccccc1CNCc1ccc(C(=O)O)cc1.Cl | 5.91
COc1cccc2cc(-c3csc(CCn4nc(C)cc4C)n3)c(=O)oc12 | -40.9
NC(=S)c1cnn2c(-c3cccc(C(F)(F)F)c3)ccnc12 | 14.2
CC(=O)Nc1ccc(S(=O)(=O)Nc2ccc(-c3ccc4nnc(C)n4n3)cc2)cc1 | -7.02
Cc1cc(C)c(NC(=O)CSc2nnc(CNC(=O)c3ccco3)o2)c(C)c1 | 6.37
CCC(C)C(=O)Nc1nc(C)c(-c2csc(Nc3ccc(Cl)cc3)n2)s1 (centres unmarked) | 12.4
CCN1C(=O)C(O)(CC(=O)c2cc(C)ccc2C)c2ccccc21 (centres unmarked) | 7.64
N/C(=N\c1nc2c(c(=O)[nH]1)CCC2)Nc1ccccc1C(F)(F)F | 7.27
Cn1c(=O)[nH]c(=O)c2c1nc(CN1CCOCC1)n2Cc1ccccc1 | -15.7
Cc1cccc(C)c1-n1c(=O)n(Cc2ccccc2)c(=O)c2[nH]cnc21 | 9.14
CCOC(=O)c1[nH]c(C)c(C(=O)OCc2ccc(C)cc2)c1C | 19.2
CCCn1nnc(NC(=O)c2ccc(OC)cc2)n1 | 2.42
N#CCc1ccc(NC(=O)Nc2cccc(Cl)c2)cc1 | 16.7
CCc1nnc(NC(=O)c2cccc(S(=O)(=O)N3CC(c4ccccc4)CC3=O)c2)s1 (centres unmarked) | -0.242

Compound | hERG current change (%, negative = inhibition) at 10uM [%]
O=C(N/C(=C/c1ccc(F)cc1)C(=O)N1CCCC1)c1ccccc1 | 19.5
COc1ccc(Cc2nnc(NC(=O)c3ccccc3)s2)cc1OC | 9.01
CC(C)NC(=O)[C@@H]1CSC2c3ccccc3C(=O)N21 (some centres unmarked) | 12.7
O=C(CSc1ccc(Br)cc1)NCC(c1cccs1)N1CCOCC1 (centres unmarked) | -19.1
O=C(CCn1nnc2ccccc21)Nc1nnc(COc2ccc(F)cc2)s1 | 4.61
CN1CCN(Cc2c(O)ccc3cc(Br)ccc23)CC1 | -33.3
Cc1noc(C)c1C1(O)CCCCCCCCCCC1 | 19
COc1ccc2nc(NCc3cccnc3)sc2c1 | 0.921
COCCNC(=S)NC12CC3CC(CC(C3)C1)C2 | 9.3
O=C(CNC(=O)c1cc(Cl)nc2ccccc12)Nc1ccccc1Br | -8.08
CC(C)CCN1CCN(Cc2cccn2-c2ccccn2)CC1CCO (centres unmarked) | -75.5
COCCNC(=S)N1CCN(c2nc(-c3cccc(OC)c3)cs2)CC1 | -4.13
Cc1ccccc1N(C)S(=O)(=O)c1nnc(NC(=O)c2ccco2)s1 | 4.25
CCC(=O)N1CCc2cc(S(=O)(=O)CCC(=O)N(C)c3ccc(OC)cc3OC)ccc21 | -11.7
COc1ccc2c(c1)C(C)CC(C)(C)N2C(=O)CSc1ncn[nH]1 (centres unmarked) | -10.9
CN(CCCNS(=O)(=O)c1cccc2cccnc12)Cc1ccccc1 | -6.28
COc1ccc(C2NC(=O)NC(O)(C(F)(F)F)C2C(=O)c2ccc(C)cc2)cc1 (centres unmarked) | -4.52
COc1ccc(NC(=O)N2CCc3ccccc3C2)cc1OC | 11.3
COc1ccc2[nH]c(O)c(N=NC(=O)c3ccc(NS(=O)(=O)c4cccs4)cc3)c2c1 | 7.35
CC(c1ccccn1)N(Cc1ccco1)C(=S)Nc1cccc(F)c1 (centres unmarked) | -6.71
